{"source": "PubChem BioAssay AID624418", "about": "(National Center for Advancing Translational Sciences (NCATS), 2012)", "note": "The campaign covered roughly 410,000 compounds. About 530 (0.13%) were called active. Inconclusive results, whose numbers are uncertain, are shown with a selection of clear calls. Calls follow the shape of the dose curve; as a rule, active = well fitted inhibition curve with a large enough effect; inconclusive = small, poorly fitted or top-dose-only effect, or another doubt; inactive = no such curve, though single readings can be large or run the other way. Potencies of inconclusive entries are doubtful fits and often do not repeat. % is scaled to controls: 0 for no effect and ±100 for the full control effect; potency is read from the fitted curve at half-maximal effect.", "data": [{"test": "qHTS of GLP-1 Receptor Inverse Agonists: Cytotox Screen", "conditions": "HEK293 cAMP-luciferase reporter cells, luminescence, 24 h; activity change, negative = inhibition: at 38.3 µM (top of the series) unless noted", "outline": "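MLSMR compounds, 24 hr on cells at 37 deg C/5% CO2; luminescence after luciferase reagent (12 min RT). Inhibition counted as the undesired cytotoxic outcome.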", "values": [{"smiles": "NS(=O)(=O)c1ccc(N=Nc2c[nH]c(=O)c(O)c2)cc1", "Potency": "inconclusive: 10 µM [inhibitor, partial curve]"}, {"smiles": "Cc1nnc(SCC(=O)c2c[nH]c3ccccc23)n1C1CC1", "Potency": "inconclusive: 28.2 µM [inhibitor, single point]"}, {"smiles": "CN(C)c1nc(N(C)C)nc(N2CC(=O)N(c3ccccc3)C2=N)n1", "Potency": "inconclusive: 22.4 µM [inhibitor, single point]"}, {"smiles": "C=CCn1c(O)c(N=NC(=O)CNC(=O)c2ccco2)c2ccccc21", "Potency": "inconclusive: 3.98 µM [inhibitor, partial curve, poor fit]"}, {"smiles": "O=C(Oc1ccc(Br)cc1C(=O)/C=C/c1ccccc1F)c1ccco1", "Potency": "inconclusive: 28.2 µM [inhibitor, single point]"}, {"smiles": "S=C(NC1CCCCC1)NN1CCCCCC1", "Potency": "inconclusive: 20 µM [inhibitor, single point]"}, {"smiles": "CC(NCC(O)COC1CCC(C(C)(C)C)CC1)c1ccccc1", "note": "(centres undefined)", "Potency": "inconclusive: 28.2 µM [inhibitor, single point]"}, {"smiles": "COc1ccc(S(=O)(=O)N2CCCC(C(=O)NCc3ccncc3)C2)cc1Cl", "note": "(centres undefined)", "activity change, negative = inhibition": "inactive: 1%"}, {"smiles": "C/C(=N\\NC(N)=S)c1ccc(Cl)s1", "Potency": "inconclusive: 3.55 µM [inhibitor, full curve, poor fit]"}, {"smiles": "O=c1[nH]c2ccc(S(=O)(=O)N3CCN(c4ccc(F)cc4)CC3)cc2o1", "Potency": "inconclusive: 31.6 µM [inhibitor, partial curve, poor fit]"}, {"smiles": "Cc1ccc(C(=O)Nc2ccccc2)cc1S(=O)(=O)Nc1ccc(Br)cc1", "Potency": "inconclusive: 11.2 µM [inhibitor, single point]"}, {"smiles": "O=S(=O)(NCCc1ccc(Cl)cc1)c1cccs1", "Potency": "inconclusive: 31.6 µM [inhibitor, single point]"}, {"smiles": "CCc1ccc(NC(=S)NC2CC3CCCC(C2)N3Cc2cccs2)cc1", "note": "(centres undefined)", "Potency": "inconclusive: 28.2 µM [inhibitor, single point]"}, {"smiles": "Cc1ccc(OCc2cc(C(=O)N(C)C3CCCc4ccccc43)no2)cc1C", "note": "(centres undefined)", "activity change, negative = inhibition": "inactive: 4.98%"}, {"smiles": "C[C@@H](NCCCn1cnc2c(OCc3ccccc3)ncnc21)c1cccc2ccccc12", "Potency": "inconclusive: 28.2 µM [inhibitor, single point]"}, {"smiles": "Cc1cccc(NC(=O)CN2C(=O)N/C(=C/c3ccc(C)o3)C2=O)c1", "activity change, negative = inhibition": "inactive: -9.99%"}, {"smiles": "CC1=C(C(=O)Nc2ccccc2)C(c2ccc(C)cc2)N=C(Nc2nc3ccccc3o2)N1", "note": "(centres undefined)", "Potency": "inconclusive: 28.2 µM [inhibitor, single point]"}, {"smiles": "NC(Cc1ccc(F)cc1)c1csc(NC(=O)NC(c2ccccc2)c2ccccc2)n1", "note": "(centres undefined)", "Potency": "inconclusive: 28.2 µM [inhibitor, single point]"}, {"smiles": "C=CCn1c(CCNC(=O)c2cccs2)nnc1SCC(=O)c1cccc([N+](=O)[O-])c1", "activity change, negative = inhibition": "inactive: 0.602%"}, {"smiles": "CCOC(=O)Nc1ccc2c(c1)N(C(=O)CCN(CC)CC)c1ccccc1CC2", "Potency": "inconclusive: 12.6 µM [inhibitor, single point]"}, {"smiles": "CCN(c1ccccc1)S(=O)(=O)c1nnc(NC(=O)c2ccccc2)s1", "activity change, negative = inhibition": "inactive: -1.89%"}, {"smiles": "CC1CCc2c(sc3nnn(CCCCOc4ccc(Cl)cc4)c(=O)c23)C1", "note": "(centres undefined)", "activity change, negative = inhibition": "inactive: 7.01%"}, {"smiles": "CCOC(=O)c1c(NC(=O)c2cc(OCC)c(OCC)c(OCC)c2)sc2c1CCCCC2", "activity change, negative = inhibition": "inactive: 1.42%"}, {"smiles": "Cc1ccc(S(=O)(=O)N/N=C/c2ccc(OCC(=O)Nc3ccccc3Cl)cc2)cc1", "activity change, negative = inhibition": "inactive: -29.8%"}, {"smiles": "Cn1nc(-c2ccccc2)c2nc3ccccc3nc21", "activity change, negative = inhibition": "inactive: 121%"}, {"smiles": "CCN(CC)S(=O)(=O)c1ccc(NC(=O)CSc2nc3nc(C)cc(C)c3c(=O)[nH]2)cc1", "Potency": "inconclusive: 2.24 µM [inhibitor, partial curve]"}, {"smiles": "O=C(CNC(=O)c1ccc(Cl)cc1)c1ccccc1", "Potency": "inconclusive: 2.51 µM [inhibitor, full curve, poor fit]"}, {"smiles": "COc1cc(OC)c2c(-c3cccc(-c4ccc(N(C)C)cc4)c3)cc(=O)oc2c1", "Potency": "inconclusive: 1.12 µM [inhibitor, full curve, poor fit]"}, {"smiles": "Cc1ccc(S(=O)(=O)CCC(=O)Nc2ccc(OC(F)(F)F)cc2)cc1", "activity change, negative = inhibition": "inactive: -4.56%"}, {"smiles": "Cc1ccc(S(=O)(=O)Nc2ccc(Cl)cc2)cc1NC(=O)c1cc2c(s1)CCCC2", "Potency": "inconclusive: 14.1 µM [inhibitor, single point]"}, {"smiles": "COc1cc(/C=N/O)cc(Br)c1OCc1cccc(Cl)c1", "Potency": "inconclusive: 31.6 µM [inhibitor, single point]"}, {"smiles": "Cc1cccc(-n2nnc(C(=O)NC3CCCc4ccccc43)c2N)c1", "note": "(centres undefined)", "Potency": "inconclusive: 31.6 µM [inhibitor, single point]"}, {"smiles": "Cc1cc(C(=O)CSc2ccc(F)cc2)cc(C)c1O", "activity change, negative = inhibition": "inactive: -3.25%"}, {"smiles": "Cc1ccc(N2CC(c3nc(-c4ccc(Cl)cc4)no3)CC2=O)cc1F", "note": "(centres undefined)", "activity change, negative = inhibition": "inactive: -4.74%"}, {"smiles": "O=C(c1ccc2c(=O)n3c(nc2c1)CCCCC3)N1CCN(c2ccc(Cl)cc2)CC1", "activity change, negative = inhibition": "inactive: 9.85%"}, {"smiles": "CCc1cccc(NC(=O)C(Cc2ccccc2)NS(=O)(=O)c2ccc3c(c2)c(=O)n(C)c(=O)n3C)c1", "note": "(centres undefined)", "activity change, negative = inhibition": "inactive: 0.745%"}, {"smiles": "CCC(CC)NCc1ccc2c(c1)c1ccccc1n2CC", "Potency": "inconclusive: 10 µM [inhibitor, single point]"}, {"smiles": "N=C1SCC(=O)N1c1ncc(Cc2ccccc2Cl)s1", "Potency": "inconclusive: 28.2 µM [inhibitor, single point]"}, {"smiles": "Cc1cccc(-c2nnc(NC(=O)c3ccco3)s2)c1", "activity change, negative = inhibition": "inactive: -5.57%"}, {"smiles": "C/C(=N/Nc1cc(-c2ccccc2)nc(-c2ccccc2)n1)c1ccc(O)cc1", "Potency": "inconclusive: 28.2 µM [inhibitor, single point]"}, {"smiles": "Cc1ccc(NC(=O)CSc2cccc3cccnc23)c(C)c1", "Potency": "inconclusive: 28.2 µM [inhibitor, single point]"}, {"smiles": "COc1cccc(NC(=O)C2CCCN2S(=O)(=O)c2ccc3nc(-c4ccccc4)[nH]c3c2)c1", "note": "(centres undefined)", "Potency": "inconclusive: 12.6 µM [inhibitor, single point]"}, {"smiles": "Cc1cc(C(=O)c2ccccc2)c(NC(=O)CCl)s1", "activity change, negative = inhibition": "inactive: -7.37%"}, {"smiles": "Cc1ccc(-c2nn(-c3ccccc3)cc2C(=O)N2CCN(C3CCS(=O)(=O)C3)CC2)cc1", "note": "(centres undefined)", "activity change, negative = inhibition": "inactive: -34.4%"}, {"smiles": "O=C(NCCN1CCCCC1)c1ccc(Cn2c(SCc3ccc(F)cc3)nc3cccnc32)cc1", "activity change, negative = inhibition": "inactive: 0.26%"}, {"smiles": "CC(/C=C/c1ccccc1)=N\\NC(=S)NC(C)C", "Potency": "inconclusive: 2.24 µM [inhibitor, full curve, poor fit]"}, {"smiles": "CCN(CC)CCOC(=O)c1ccc(NC(=O)c2cc3cccc(OC)c3oc2=O)cc1", "activity change, negative = inhibition": "inactive: -0.94%"}, {"smiles": "COc1ccc(Cl)cc1NC(=O)Cn1nnc(C(=O)NCc2ccc3c(c2)OCO3)c1N", "Potency": "inconclusive: 12.6 µM [inhibitor, single point]"}, {"smiles": "CCOCCc1nn2c(=O)cc(COC(=O)c3cccc(C)c3)nc2s1", "activity change, negative = inhibition": "inactive: 27.8%"}, {"smiles": "COc1ccc(NS(=O)(=O)c2ccc(C)c(C(=O)NNC(=O)c3ccccc3O)c2)cc1", "Potency": "inconclusive: 20 µM [inhibitor, single point]"}, {"smiles": "CCc1ccc(O)c(N=Cc2cccc(C)c2O)c1", "activity change, negative = inhibition": "inactive: -30.8%"}, {"smiles": "Cc1cc(F)ccc1NC(=O)c1ccc(NS(=O)(=O)c2cc(C(C)(C)C)ccc2C)cc1", "Potency": "inconclusive: 28.2 µM [inhibitor, single point]"}, {"smiles": "CC(C)Cc1ccc(C2=CSC3=NCCN23)cc1", "Potency": "inconclusive: 11.2 µM [inhibitor, partial curve, poor fit]"}, {"smiles": "O=[N+]([O-])c1ccc(C=NNC(=S)Nc2ccc(F)cc2)cc1", "Potency": "inconclusive: 1.12 µM [inhibitor, full curve, poor fit]"}, {"smiles": "CC(NC(=O)/C(C#N)=C/c1ccco1)c1ccccc1", "note": "(centres undefined)", "activity change, negative = inhibition": "inactive: 0.669%"}, {"smiles": "CCN1CCN(C(=S)NC(=O)c2cccc(Br)c2)CC1", "Potency": "inconclusive: 11.2 µM [inhibitor, single point]"}, {"smiles": "CCC(C(=O)N1CCc2ccccc2C1)n1nc(C)n2c(cc3occc32)c1=O", "note": "(centres undefined)", "Potency": "inconclusive: 2.24 µM [inhibitor, full curve]"}, {"smiles": "CC(C)(C)NS(=O)(=O)c1ccc2nc(NC(=O)Cc3cccs3)sc2c1", "Potency": "inconclusive: 11.2 µM [inhibitor, partial curve, poor fit]"}, {"smiles": "COc1cc2c(cc1OC)CN(C(=S)NC(=O)c1ccccc1)CC2", "Potency": "inconclusive: 28.2 µM [inhibitor, single point]"}, {"smiles": "OCCN(CCO)CC(O)COc1ccc(C23CC4CC(CC(C4)C2)C3)cc1", "note": "(centres undefined)", "Potency": "inconclusive: 28.2 µM [inhibitor, single point]"}, {"smiles": "Cc1ccc2nc(NC(=O)c3ccc(OCC4CCCO4)cc3)sc2c1", "note": "(centres undefined)", "Potency": "inconclusive: 28.2 µM [inhibitor, single point]"}, {"smiles": "C/C(=N/NC(=O)c1ccoc1C)c1ccc(NC(=O)c2ccncc2)cc1", "Potency": "inconclusive: 31.6 µM [inhibitor, single point]"}, {"smiles": "COc1cc(/C=C2/C(=O)NN(c3cccc(C)c3)C2=O)cc([N+](=O)[O-])c1O", "Potency": "inconclusive: 11.2 µM [inhibitor, partial curve, poor fit]"}, {"smiles": "COc1cc(NS(=O)(=O)c2ccc(NC(=O)c3ccc(OC)c(Br)c3)cc2)nc(OC)n1", "activity change, negative = inhibition": "inactive: 11%"}, {"smiles": "CCCC1=Nc2cc(C(=O)NCC(C)c3ccccc3)ccc2Sc2ccccc21", "note": "(centres undefined)", "Potency": "inconclusive: 7.94 µM [inhibitor, partial curve, poor fit]"}, {"smiles": "O=C(Cc1ccc(Cl)cc1)NC(=S)Nc1ccccc1N1CCOCC1", "Potency": "inconclusive: 12.6 µM [inhibitor, single point]"}, {"smiles": "O=C(N/N=C/c1ccco1)c1ccncc1", "activity change, negative = inhibition": "inactive: 1.4%"}, {"smiles": "CC(C)CCn1c(O)c(N=Nc2ccccn2)c2ccccc21", "Potency": "inconclusive: 10 µM [inhibitor, single point]"}, {"smiles": "COc1ccc2ccccc2c1/C=N\\NC(=O)c1cccnc1", "Potency": "inconclusive: 28.2 µM [inhibitor, single point]"}]}]}
